# PubChem BioAssay AID1347043 (National Center for Advancing Translational Sciences (NCATS), 2019)
# In all, about 76,000 compounds went through this assay and about 1,900 (2.5%) were called active. This list was built around the results that the source calls inconclusive (neither active nor inactive); the mix of calls is not that of the screen. Calls follow the shape of the dose curve; as a rule, active = well fitted inhibition curve with a large enough effect; inconclusive = small, poorly fitted or top-dose-only effect; inactive = flat fitted curve, though single readings scatter. Potencies beside an inconclusive call are fits to weak or partial responses and may not hold up.
# Target: Luciferin 4-monooxygenase (Photinus pyralis) (UniProt P08659)
# UniProt P08659, sequence (P08659 whole entry, looked up): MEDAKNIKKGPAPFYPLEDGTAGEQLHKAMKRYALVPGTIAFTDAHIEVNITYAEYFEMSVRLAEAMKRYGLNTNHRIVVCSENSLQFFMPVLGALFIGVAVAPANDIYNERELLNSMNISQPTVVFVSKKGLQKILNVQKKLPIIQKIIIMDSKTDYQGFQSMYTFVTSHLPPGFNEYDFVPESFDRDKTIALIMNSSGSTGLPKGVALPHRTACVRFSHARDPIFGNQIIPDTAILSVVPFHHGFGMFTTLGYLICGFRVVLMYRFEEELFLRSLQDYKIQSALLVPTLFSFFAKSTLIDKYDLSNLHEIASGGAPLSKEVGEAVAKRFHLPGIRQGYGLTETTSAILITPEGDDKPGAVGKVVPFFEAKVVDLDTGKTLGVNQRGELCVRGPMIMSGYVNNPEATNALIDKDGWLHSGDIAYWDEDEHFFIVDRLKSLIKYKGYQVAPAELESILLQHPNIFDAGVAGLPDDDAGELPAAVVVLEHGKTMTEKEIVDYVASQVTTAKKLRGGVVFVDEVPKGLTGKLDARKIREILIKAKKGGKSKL
# Assay: Firefly luciferase inhibition profiling of diverse chemical library using quantitative high-throughput screening; also: nearly all actives have a fitted effect of over 65% in size
# Conditions: purified P. pyralis luciferase, luminescence, biochemical; activity change, negative = inhibition: at 115 µM (top of the series) unless noted
# How it was run: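 Biochemical qHTS: compound (6-point titration) added to 10uM D-luciferin plus 10uM ATP in Tris acetate pH 7.5 buffer with Mg, Tween-20 and BSA, then purified enzyme at 10nM; light output imaged.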
# % is scaled to controls: 0 for no effect and ±100 for the full control effect; potency is read from the fitted curve at half-maximal effect; tags tell the direction and shape of the fitted curve.
SMILES,Potency,"activity change, negative = inhibition"
Cn1c([C@H]2CCN(C3CCCCC3)C2)nc2ccccc21,active: 7.08 µM,
O=[S+]([O-])(c1ccccc1)N1CC2(COCCN(Cc3ccc(Cl)cc3)C2)C1,,inactive: -8.9% [at 172 µM]
CC(C)c1ccc(NC2=N[C@H]3[C@@H](O)[C@H](O)C[C@H](C(=O)NCCN4CCOCC4)[C@H]3S2)cc1,"inconclusive: 44.7 µM [inhibitor, partial curve, poor fit]",
Cc1ccc(NC(=O)NCC2CCOCC2)cc1C,"inconclusive: 44.7 µM [inhibitor, partial curve, poor fit]",
COc1ccc(CN2CCOc3nc(-c4ccc(O)c(F)c4)ncc3C2=O)cc1,"inconclusive: 70.8 µM [inhibitor, partial curve]",
CN(C)Cc1cn2c(=O)n(C)cc(-c3ccc(F)c(Cl)c3)c2n1,,inactive: -14.5% [at 172 µM]
CCN1CCN(C(=O)CC2CCCN(c3cnn(CC)c(=O)c3)C2)CC1 (configuration not stated),,inactive: -2.64%
O=C(COc1ccccc1)N1CCC2(CC1)OCCN(CCc1ccccc1)C2=O,"inconclusive: 126 µM [inhibitor, partial curve, poor fit]",
CCCS(=O)(=O)N1CCCC(Cc2noc(-c3ccccc3)n2)C1 (configuration not stated),"inconclusive: 20 µM [inhibitor, full curve, poor fit]",
CCOC(=O)CCNC(=O)N1CCc2c(nc3cc(-c4ccccc4)[nH]n3c2=O)C1,"inconclusive: 39.8 µM [inhibitor, partial curve]",
CCCCc1ccc(-n2cc(CN3CCN(C(C)=O)CC(O)C3)cn2)cc1 (configuration not stated),active: 39.8 µM,
CN(Cc1ccc(F)cc1)c1ccc2ncc(Nc3cccc(O)c3)n2n1,,inactive: 3.41% [at 172 µM]
COc1ccc(C(=O)NC2CCCN(c3cc(-c4ccc(F)cc4)[nH]n3)C2)cc1 (configuration not stated),"inconclusive: 10 µM [inhibitor, full curve]",
CC(=O)NC1(C)CCN(Cc2cccc(-c3ccc4ccccc4c3)c2)C1 (configuration not stated),active: 1.78 µM,
O=C(NCC1CC1)C1CCN(C(=O)c2ncn3c2COC(c2ccccc2)C3)CC1 (configuration not stated),active: 10 µM,
Cc1cccc(NC(=O)Cn2ccn3nc(-c4ccc(F)cc4)c(CO)c3c2=O)c1C,,inactive: -2.33%
CC(C)C[C@H](NC(=O)c1csc2nc(-c3cccc(C(F)(F)F)c3)cn12)C(N)=O,"inconclusive: 79.4 µM [inhibitor, partial curve, poor fit]",
O=C(Nc1ccc2c(c1)OCCO2)N1CCC(Cc2nc(C3CC3)n[nH]2)C1 (configuration not stated),"inconclusive: 39.8 µM [inhibitor, partial curve]",
CC(C)C[C@@H]1N[C@H](C(=O)NCc2ccc(C#N)cc2)Cc2c[nH]c3cccc1c23,,inactive: 0.191% [at 172 µM]
CC(=O)c1ccc(NC(=O)N2Cc3[nH]cnc3C[C@H]2c2nc(-c3ccc(F)cc3)no2)cc1,"inconclusive: 79.4 µM [inhibitor, single point]",
CCC(=O)N(C1CCOCC1)C1CCN(S(=O)(=O)c2ccc(F)cc2F)CC1,,inactive: 5.26%
COc1ccc(-c2noc(-c3cccn3CC(=O)N(C)c3ccc(F)cc3)n2)cc1F,,inactive: -5.02%
COc1ccc(-c2cc(C[C@@H]3CC[C@H](O)[C@@H](CNC4CCOCC4)O3)no2)cc1,"inconclusive: 50.1 µM [inhibitor, partial curve]",

SMILES,Potency,"activity change, negative = inhibition"
COc1cccc(C(=O)N2CCc3onc(-c4cccc(F)c4)c3C2)c1OC,,inactive: 8.77%
COc1ccc(-c2cc(N3CCCC(NC(=O)Cc4ccccc4)C3)n[nH]2)cc1 (configuration not stated),"inconclusive: 39.8 µM [inhibitor, partial curve]",
Cc1nn(-c2ccc(C(F)(F)F)cc2)c(C)c1[C@@H]1C=C[C@@H](NC(=O)c2cccnc2)C1,"inconclusive: 70.8 µM [inhibitor, partial curve]",
O=C(c1ccc(F)cc1)N1CCc2nc(OCC3CC3)ccc2C1,,inactive: 2.05%
COc1ccc(-c2cc(C(=O)N3CCC(c4nc(CCOCC5CC5)no4)C3)[nH]n2)cc1 (configuration not stated),"inconclusive: 44.7 µM [inhibitor, partial curve]",
CS(=O)(=O)N1CCC(C2CCN(Cc3ccc[nH]3)C2)CC1 (configuration not stated),,inactive: -2.46%
CCC(NC(=O)c1ccc2nc(-c3ccc(F)cc3)cn2c1)c1cccnc1 (configuration not stated),active: 15.8 µM,
Cc1oc(C(O)c2cccc(O)c2)nc1C(=O)Nc1ccc(N2CCOCC2)cc1 (configuration not stated),active: 5.01 µM,
Cn1cc(C(=O)N2CC(Oc3ccc(-c4nc(-c5ccccc5)no4)cc3)C2)cn1,"inconclusive: 50.1 µM [inhibitor, partial curve]",
COc1ccc(-c2nc(N3CCOCC3)cc3c2CN(Cc2ccccc2)C3=O)cc1,"inconclusive: 12.6 µM [inhibitor, full curve]",
O=C(O)c1cc(-c2ccc(CN3CCCC(CO)C3)o2)ccc1Cl (configuration not stated),"inconclusive: 2.82 µM [inhibitor, full curve, poor fit]",
O=C1CCC2(CCN1CC1CC1)CCN(C(=O)c1ccc3c(c1)OCO3)CC2,"inconclusive: 100 µM [inhibitor, single point]",
CC(C)NC(=O)C[C@@H]1CCNC[C@@H]1Cc1cc(-c2ccccc2)on1,,inactive: 2% [at 172 µM]
Cc1ccc(C)c(C(=O)N2CCC(Oc3nccnc3N(C)C)C2)c1 (configuration not stated),"inconclusive: 22.4 µM [inhibitor, full curve]",
CC(Cn1cccn1)C(=O)N1CCc2[nH]nc(-c3ccc(Cl)cc3)c2C1 (configuration not stated),"inconclusive: 50.1 µM [inhibitor, partial curve, poor fit]",
COc1ccc(-c2noc([C@@H]3C[C@@H](O)CN3Cc3cccs3)n2)cc1,active: 14.1 µM,
O=C1CCN(C(=O)c2ccco2)CCCC(c2nc(-c3ccccc3)no2)CCN1 (configuration not stated),active: 28.2 µM,
COc1ccc(NC(=O)c2ccc(CN3C(=O)NC4(CCOCC4)C3=O)cc2)cc1,active: 28.2 µM,
O=C(Cc1c[nH]c2ncc(-c3cccc(F)c3)cc12)NCc1cccnc1,,inactive: 7.94% [at 172 µM]
CN1CCN(c2ccc3ncc(Nc4ccc(OC(F)(F)F)cc4)n3n2)CC1,,inactive: 1.97% [at 172 µM]
O=C(O)Cn1ccc2cc(OCCc3cccc(-c4cccnc4)c3)cnc21,"inconclusive: 79.4 µM [inhibitor, partial curve]",
O=C(Nc1ccc(Cl)cc1Cl)c1ccc2ccnn2c1,active: 2.82 µM,
CN(Cc1cc(C[C@@H]2C[C@H](NCc3ncc[nH]3)C2(C)C)no1)c1ccccc1,"inconclusive: 70.8 µM [inhibitor, full curve]",

SMILES,Potency,"activity change, negative = inhibition"
CCCn1nc(C)c(-c2cc(C(=O)N3CCc4nc5cc(-c6ccccc6)[nH]n5c(=O)c4C3)[nH]n2)c1C,"inconclusive: 35.5 µM [inhibitor, partial curve, poor fit]",
O=C(N[C@H]1C[C@@H]2OCC[C@H]12)c1ccccc1-c1nc(-c2ccccc2)no1,"inconclusive: 50.1 µM [inhibitor, partial curve]",
COc1ccc(Cl)cc1C(=O)NC1CCCN(c2cc(-c3ccc(F)cc3)[nH]n2)C1 (configuration not stated),"inconclusive: 35.5 µM [inhibitor, full curve]",
CC(=O)N1CCC(C(=O)NCC2CCN(c3cc(-c4ccc(C)cc4)[nH]n3)CC2)CC1,,inactive: -16.5%
O=C(Nc1ccccc1)C1=NO[C@@H]2CN(Cc3cc(F)ccc3F)C[C@H]12,"inconclusive: 63.1 µM [inhibitor, full curve]",
c1cncc(-c2cc(-c3ccc4cn[nH]c4c3)cn3cncc23)c1,"inconclusive: 70.8 µM [inhibitor, partial curve]",
O=C(Nc1ccccc1)N[C@H]1[C@H](O)[C@@H](Sc2ccccc2)[C@@H]2OC[C@H]1O2,"inconclusive: 70.8 µM [inhibitor, partial curve]",
O=C([C@H]1C[C@H](Oc2ccccc2)CN1C(=O)CCCc1ccccc1)N1CCOCC1,"inconclusive: 89.1 µM [inhibitor, single point]",
CCCNC(=O)c1cc2c(=O)[nH]c(C)cn2n1,"inconclusive: 14.1 µM [inhibitor, full curve]",
Cc1ccccc1CNC(=O)C1(c2ccc(NS(C)(=O)=O)cc2)CCCCC1,,inactive: 0%
COc1ccc(CNC(=O)C2(C)CCCCC(=O)N2)cc1OC (configuration not stated),"inconclusive: 4.47 µM [inhibitor, full curve, poor fit]",
CC(C)c1ccc(CC(=O)N2CCCc3ncc(C(=O)NCCOc4ccccc4)cc32)cc1,"inconclusive: 35.5 µM [inhibitor, partial curve]",
COc1cc(F)cc(-c2ccc(COc3ccc4c(cnn4CCC(=O)O)c3)cc2)c1,"inconclusive: 79.4 µM [inhibitor, partial curve]",
O=C(c1nc2sccn2c1Br)N1CCOCC1,,inactive: -7.61% [at 172 µM]
Cc1ccccc1CCC1CCCN(C(=O)C2(C)CC2)C1 (configuration not stated),"inconclusive: 56.2 µM [inhibitor, partial curve, poor fit]",
Cc1cc(C(=O)N2CC(N(C)Cc3cccnc3)C2)n[nH]1,"inconclusive: 39.8 µM [inhibitor, partial curve]",
O=C(CN1CCCc2nc(-c3ccncc3)ncc2C1=O)NCCCN1CCOCC1,,inactive: 8.73%
O=C(O)COc1ccc(-c2nccc3c2C(=O)N(Cc2ccccc2)CC(COc2ccc4cccnc4c2)O3)cc1 (configuration not stated),"inconclusive: 44.7 µM [inhibitor, partial curve]",
COc1ccccc1-c1nc2nccc(-c3ccccc3)n2n1,"inconclusive: 56.2 µM [inhibitor, partial curve, poor fit]",
CSCCC(=O)N[C@H]1CN(c2cc(C3CC3)ncn2)C[C@@H]1C1CC1,"inconclusive: 44.7 µM [inhibitor, partial curve]",
Cc1cc(Cl)ccc1-n1nc(C)c([C@@H]2C=C[C@@H](NC(=O)CCC(=O)O)C2)c1C,active: 39.8 µM,
